Measurements: publication PMC8163987
Read-outs that look alike come from different tables or passages of the source. These are yes or no findings as the source states them, for the method shown. Some results given as binding are weak or reduced against the parent protein; the word gives no strength.

Sequences of proteins named here, by UniProt entry; tags and fusion partners are left off.
UniProt P27434: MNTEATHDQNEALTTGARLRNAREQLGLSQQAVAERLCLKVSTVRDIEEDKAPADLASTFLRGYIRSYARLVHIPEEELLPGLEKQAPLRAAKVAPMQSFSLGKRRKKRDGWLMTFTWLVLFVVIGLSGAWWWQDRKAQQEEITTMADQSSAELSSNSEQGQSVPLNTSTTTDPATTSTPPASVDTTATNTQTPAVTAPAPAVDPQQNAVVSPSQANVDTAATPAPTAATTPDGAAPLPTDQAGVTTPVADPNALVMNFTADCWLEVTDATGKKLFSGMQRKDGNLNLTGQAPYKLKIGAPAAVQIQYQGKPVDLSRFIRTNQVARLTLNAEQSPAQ
UniProt P06136: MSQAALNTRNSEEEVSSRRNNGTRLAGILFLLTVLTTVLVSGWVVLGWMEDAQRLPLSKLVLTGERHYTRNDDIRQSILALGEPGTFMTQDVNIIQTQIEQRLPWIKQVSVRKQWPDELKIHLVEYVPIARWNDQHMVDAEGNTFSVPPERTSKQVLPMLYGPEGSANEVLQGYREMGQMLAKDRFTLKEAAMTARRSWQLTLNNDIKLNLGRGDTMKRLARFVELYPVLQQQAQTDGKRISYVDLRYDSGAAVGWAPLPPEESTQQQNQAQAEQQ

B1: YidC (E. coli) (protein, UniProt P25714 1-548)
chain: MDSQRNLLVIALLFVSFMIWQAWEQDKNPQPQAQQTTQTTTTAAGSAADQGVPASGQGKLISVKTDVLDLTINTRGGDVEQALLPAYPKELNSTQPFQLLETSPQFIYQAQSGLTGRDGPDNPANGPRPLYNVEKDAYVLAEGQNELQVPMTYTDAAGNTFTKTFVLKRGDYAVNVNYNVQNAGEKPLEISSFGQLKQSITLPPHLDTGSSNFALHTFRGAAYSTPDEKYEKYKFDTIADNENLNISSKGGWVAMLQQYFATAWIPHNDGTNNFYTANLGNGIAAIGYKSQPVLVQPGQTGAMNSTLWVGPEIQDKMAAVAPHLDLTVDYGWLWFISQPLFKLLKWIHSFVGNWGFSIIIITFIVRGIMYPLTKAQYTSMAKMRMLQPKIQAMRERLGDDKQRISQEMMALYKAEKVNPLGGCFPLLIQMPIFLALYYMLMGSVELRQAPFALWIHDLSAQDPYYILPILMGVTMFFIQKMSPTTVTDPMQQKIMTFMPVIFTVFFLWFPSGLVLYYIVSNLVTIIQQQLIYRGLEKRGLHSREKKKS
B2: RodA (E. coli) (protein, UniProt P0ABG7 1-370)
chain: MTDNPNKKTFWDKVHLDPTMLLILLALLVYSALVIWSASGQDIGMMERKIGQIAMGLVIMVVMAQIPPRVYEGWAPYLYIICIILLVAVDAFGAISKGAQRWLDLGIVRFQPSEIAKIAVPLMVARFINRDVCPPSLKNTGIALVLIFMPTLLVAAQPDLGTSILVALSGLFVLFLSGLSWRLIGVAVVLVAAFIPILWFFLMHDYQRQRVMMLLDPESDPLGAGYHIIQSKIAIGSGGLRGKGWLHGTQSQLEFLPERHTDFIFAVLAEELGLVGILILLALYILLIMRGLWIAARAQTTFGRVMAGGLMLILFVYVFVNIGMVSGILPVVGVPLPLVSYGGSALIVLMAGFGIVMSIHTHRKMLSKSV
B3: FtsI (E. coli) (protein, UniProt P0AD68 1-588)
chain: MKAAAKTQKPKRQEEHANFISWRFALLCGCILLALAFLLGRVAWLQVISPDMLVKEGDMRSLRVQQVSTSRGMITDRSGRPLAVSVPVKAIWADPKEVHDAGGISVGDRWKALANALNIPLDQLSARINANPKGRFIYLARQVNPDMADYIKKLKLPGIHLREESRRYYPSGEVTAHLIGFTNVDSQGIEGVEKSFDKWLTGQPGERIVRKDRYGRVIEDISSTDSQAAHNLALSIDERLQALVYRELNNAVAFNKAESGSAVLVDVNTGEVLAMANSPSYNPNNLSGTPKEAMRNRTITDVFEPGSTVKPMVVMTALQRGVVRENSVLNTIPYRINGHEIKDVARYSELTLTGVLQKSSNVGVSKLALAMPSSALVDTYSRFGLGKATNLGLVGERSGLYPQKQRWSDIERATFSFGYGLMVTPLQLARVYATIGSYGIYRPLSITKVDPPVPGERVFPESIVRTVVHMMESVALPGGGGVKAAIKGYRIAIKTGTAKKVGPDGRYINKYIAYTAGVAPASQPRFALVVVINDPQAGKYYGGAVSAPVFGAIMGGVLRTMNIEPDALTTGDKNEFVINQGEGTGGRS
B4: Escherichia coli YhcB (protein, UniProt P0ADW3 1-132)
chain: MTWEYALIGLVVGIIIGAVAMRFGNRKLRQQQALQYELEKNKAELDEYREELVSHFARSAELLDTMAHDYRQLYQHMAKSSSSLLPELSAEANPFRNRLAESEASNDQAPVQMPRDYSEGASGLLRTGAKRD
B5: YciS (E. coli) (protein, UniProt P0ACV4 1-102)
chain: MKYLLIFLLVLAIFVISVTLGAQNDQQVTFNYLLAQGEYRISTLLAVLFAAGFAIGWLICGLFWLRVRVSLARAERKIKRLENQLSPATDVAVVPHSSAAKE

Key:
Assay in all cases: two-hybrid
[1] = target: T1, Escherichia coli YhcB (E. coli) (UniProt P0ADW3)
T1 sequence: B4 chain

[2] = target: T2, YhcB-v7 (cytoplasmic domain only, lacking the TM region) (E. coli) (UniProt P0ADW3)
T2 sequence: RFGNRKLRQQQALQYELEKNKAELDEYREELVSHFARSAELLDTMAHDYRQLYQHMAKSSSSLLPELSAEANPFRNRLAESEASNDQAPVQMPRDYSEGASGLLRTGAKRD

[3] = target: T2, YhcB-v7 (cytoplasmic domain only, lacking the TM region) (E. coli); remark: listed apart in the source
[4] = target: T1, Escherichia coli YhcB (E. coli); remark: listed apart in the source

Molecule	binding [3]	binding [4]	further results
ZapE (Vibrio cholerae) (from UniProt Q9KUF3 1-367)			binding [1]: binds
RodZ (E. coli) (from UniProt P27434 1-337)			binding [2]: no binding
FtsQ (E. coli) (from UniProt P06136 1-276)			binding [1]: binds
B1	no binding	binds	
B2		binds	
B3	no binding	binds	
B4		no binding	
B5	no binding		
